In publication PMC4336329 (PLoS ONE, 2015):
Hit rate of the full screen: of about 310,000 compounds, about 14,000 (4.5%) showed an effect of 50% or more. The effect is printed as a negative number. Some of the results follow.

Target: human ether-à-go-go-related gene (hERG) potassium channel (human, UniProt Q12809)
Assay: primary screen, population patch clamp on CHO cells stably expressing hERG
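Note: peak tail current of the secondary pulse compared with the same well before compound.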

human ether-à-go-go-related gene (hERG) potassium channel, sequence (Q12809 whole entry, looked up): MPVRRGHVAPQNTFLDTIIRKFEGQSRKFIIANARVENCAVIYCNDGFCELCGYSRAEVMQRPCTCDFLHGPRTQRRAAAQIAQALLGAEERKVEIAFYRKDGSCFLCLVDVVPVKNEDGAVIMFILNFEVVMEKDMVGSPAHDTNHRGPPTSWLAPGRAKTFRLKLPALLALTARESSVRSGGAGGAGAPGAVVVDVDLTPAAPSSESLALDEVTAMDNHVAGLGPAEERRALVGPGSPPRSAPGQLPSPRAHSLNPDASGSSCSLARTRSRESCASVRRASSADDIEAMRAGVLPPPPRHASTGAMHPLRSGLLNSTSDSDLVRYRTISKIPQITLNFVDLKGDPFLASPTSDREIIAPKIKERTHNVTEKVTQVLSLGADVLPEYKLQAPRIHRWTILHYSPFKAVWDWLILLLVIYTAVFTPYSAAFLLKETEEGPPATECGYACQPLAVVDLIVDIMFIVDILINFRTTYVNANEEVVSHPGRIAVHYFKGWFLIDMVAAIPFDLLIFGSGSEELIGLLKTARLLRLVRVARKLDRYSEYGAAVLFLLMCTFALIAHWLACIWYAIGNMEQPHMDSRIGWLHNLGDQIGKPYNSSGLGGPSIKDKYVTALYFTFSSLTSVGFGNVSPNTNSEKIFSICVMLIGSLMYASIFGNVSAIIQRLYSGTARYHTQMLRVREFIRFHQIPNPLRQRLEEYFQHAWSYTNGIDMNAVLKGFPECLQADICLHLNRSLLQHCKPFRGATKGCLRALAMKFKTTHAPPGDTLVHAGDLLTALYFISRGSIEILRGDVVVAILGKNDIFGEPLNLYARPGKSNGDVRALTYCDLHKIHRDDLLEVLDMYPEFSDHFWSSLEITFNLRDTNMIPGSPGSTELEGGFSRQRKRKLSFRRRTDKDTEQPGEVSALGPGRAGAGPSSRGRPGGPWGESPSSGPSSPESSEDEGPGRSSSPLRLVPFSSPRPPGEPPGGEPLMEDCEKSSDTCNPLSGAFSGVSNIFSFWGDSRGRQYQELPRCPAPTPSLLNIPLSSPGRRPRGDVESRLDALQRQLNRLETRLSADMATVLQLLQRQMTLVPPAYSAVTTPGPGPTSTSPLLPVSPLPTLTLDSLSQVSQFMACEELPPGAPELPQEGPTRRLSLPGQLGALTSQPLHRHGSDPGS

| Compound | hERG current change (%, negative = inhibition) at 10uM [%] |
| --- | --- |
| Cc1cc2c(cc(C(=O)N3CCC(C(=O)NC4CCCC4)CC3)n2Cc2c(F)cccc2Cl)o1 | -30.1 |
| O=C(NNC(=O)c1csc(N2CCOCC2)n1)c1ccc(Cl)nc1 | 1.67 |
| c1ccc(CCn2nnnc2C(c2cccnc2)N2CCOCC2)cc1 (centres unmarked) | 8.84 |
| COc1ccc(C(c2sc3nc(C)nn3c2O)N2CCN(Cc3ccccc3)CC2)cc1OC (centres unmarked) | -18.3 |
| CC(C)=CCSc1nnc([C@@H](N)Cc2c[nH]c3ccccc23)o1.Cl | 12.1 |
| CC(=O)n1nc(-c2ccccc2)cc1-c1ccccc1 | 0.851 |
| CC(=O)c1ccccc1OC(=O)COc1ccc([N+](=O)[O-])cc1 | 5.6 |
| CNCCC=C1c2ccccc2CCc2ccccc21.Cl | -2.37 |
| CC(C)c1ccc(/C=N/NC(=O)C(=O)NCCCN2CCOCC2)cc1 | -20.6 |
| CC[C@H](C)[C@H](NC(N)=O)C(=O)NCCc1ccc(Cl)cc1Cl | 14.3 |
| Cc1cc(-c2cc(C(=O)O)c3ccccc3n2)c(C)s1 | 26.4 |
| CCOc1ccc(N=c2cc(-c3ccc(OC)cc3)oc3ccccc23)cc1 | -2.16 |
| CC(C)Cn1c(=O)c2ccccc2n2c(CCC(=O)NCC3CCCO3)nnc12 (centres unmarked) | 11.2 |
| CCCS(=O)(=O)c1c(S(=O)(=O)CCC)c2c(C)cccn2c1C(N)=O | 0.725 |
| CCOC(=O)C1CCN(S(=O)(=O)c2ccc3c(c2)CCN3C(C)=O)CC1 | -2.33 |
| COc1ccc(CNC(=O)C(C)N(Cc2ccco2)C(=O)c2snc(C(N)=O)c2N)cc1 (centres unmarked) | -32.9 |
| O=S(=O)(c1cccs1)N1CCc2ccccc21 | 8.51 |
| Cc1c(C(=O)NCCc2ccc(Cl)cc2)sc2nc3n(c(=O)c12)CCC3 | -21.5 |
| CCOc1cc(/C=N\NC(=O)Cn2nc([N+](=O)[O-])cc2C)ccc1OCc1cccc2ccccc12 | 14.2 |

| Compound | hERG current change (%, negative = inhibition) at 10uM [%] |
| --- | --- |
| OCCn1c(SC2CCCCC2)nc2ccccc21 | -4.3 |
| CC1(c2cccs2)CC(c2cccs2)=C(C#N)C(=O)N1 (centres unmarked) | -18 |
| CCCOc1ccc(N2C(=O)CC(N(Cc3ccco3)C(C)=O)C2=O)cc1 (centres unmarked) | 2.43 |
| O=C(CN1CSCC1=O)N1CCN(S(=O)(=O)c2cccc(F)c2)CC1 | -2.67 |
| O=C(Nc1nnc(-c2ccco2)o1)c1ccc2ccccc2c1 | 10.1 |
| CCN1CCCc2cc(CN(CCN3CCOCC3)C(=S)Nc3ccccc3C)ccc21 | 7.32 |
| Cc1ccc(C2(C)NC(=O)N(CC(=O)Nc3ccccc3N3CCCC3)C2=O)cc1 (centres unmarked) | 0.923 |
| CC(OC(=O)c1cc2ccccc2o1)C(=O)Nc1ccc(N2CCOCC2)cc1 (centres unmarked) | -0.616 |
| Cc1nccn1CCOc1ccccc1Cl | -35.1 |
| COc1ccccc1CNS(=O)(=O)c1c(C)[nH]c(C)c1C(=O)N1CCCCC1 | -5.86 |
| CC(=O)Nc1ccc(NC(=O)C(C)OC(=O)c2c(C)nn(-c3ccccc3)c2Cl)cc1 (centres unmarked) | -14.8 |
| COCCSc1ccccc1C(=O)N1CCN(c2ccccc2)CC1 | 9.14 |
| Cc1c(NC(=O)C(C)OC(=O)c2cccnc2Cl)c(=O)n(-c2ccccc2)n1C (centres unmarked) | 9.23 |
| COc1ccc(-n2cc(C(=O)c3cc(Cl)ccc3O)cc(C#N)c2=O)cc1 | -14.5 |
| O=C(COC(=O)Cc1ccc(-c2ccccc2)cc1)NCc1ccccc1 | 20.8 |
| CCOC(=O)C1CCN(c2c(-c3ccccc3)c3cc(Cl)ccc3[nH]c2=O)CC1 | 6.71 |
| CC1CN(C(=O)c2ccccc2OCc2ccc(Cl)cc2Cl)CC(C)O1 (centres unmarked) | -37.7 |
| Cc1c(C(=O)Nc2cccc([N+](=O)[O-])c2)csc1-c1ccccc1 | 16.3 |
| COc1ccc(N(CC(=O)Nc2ccc3c(c2)OCCO3)S(=O)(=O)c2c(C)noc2C)cc1 | -6.74 |

| Compound | hERG current change (%, negative = inhibition) at 10uM [%] |
| --- | --- |
| CCOC(=O)C(C)N1N=C(/C=C/c2ccc(C)cc2)CCC1=O (centres unmarked) | -30 |
| COC(=O)c1c(C)[nH]c(C(=O)C(C)OC(=O)c2cc(C)oc2C)c1C (centres unmarked) | -12.7 |
| COc1ccc(S(=O)(=O)N2CCNCC2)cc1 | 10.9 |
| O=c1ncn(-c2cccc([N+](=O)[O-])c2)c2ccccc12 | -15.6 |
| CC(NC(=O)C1CCN(S(=O)(=O)c2ccc3c(c2)NC(=O)CO3)CC1)c1ccccc1 (centres unmarked) | -7.39 |
| COc1ccc(OCC(=O)NNC(=O)c2cccs2)cc1 | 11.4 |
| CC(/C=N/n1c(COc2ccccc2)n[nH]c1=S)=C\c1ccccc1 | 14.7 |
| O=C(CS(=O)(=O)c1cn(Cc2ccc(Cl)cc2)c2ccccc12)N1CCCC1 | -40.5 |
| CCN1CCN(C(=S)Nc2cc(S(=O)(=O)N(CC)CC)ccc2C)CC1 | -4.25 |
| CC(C(=O)NCC(=O)Nc1ccc(F)c(F)c1F)N1CCN(c2ccc(O)cc2)CC1 (centres unmarked) | -6.1 |
| C/C=C/c1ccc(OCC(=O)O)c(OC)c1 | 12.4 |
| C=C(C)Cn1c(SCC)nc2ccccc2c1=O | 3.13 |
| COc1ccc(-c2cc(C(=O)N3CCCC3)c3ccccc3n2)cc1OC | 5.86 |
| COc1cccc(Nc2ncnc3sccc23)c1 | 11.4 |
| O=C(COc1ccccc1)NC(NC(=S)Nc1ccccc1O)C(Cl)(Cl)Cl (centres unmarked) | 2.52 |
| Cc1nc(-c2ccccc2)sc1C1(C)CC(c2cccc(F)c2)=NO1 (centres unmarked) | 13.4 |
| CCOc1cc(C(C#N)N2CCOCC2)ccc1OC (centres unmarked) | 8.94 |
| Cc1nc2sc3c(c2c(=O)[nH]1)CCCCC3 | 2.03 |
